Data published in the supplement of paper PMC12217912.
The other results are listed elsewhere or left out. Sequences were assembled here from the parent chain. Values near 0.05 are background.

B1: TEV protease; numbered along this chain (parent)
chain: MGESLFKGPRDYNPISSSICHLTNESDGHTTSLYGIGFGPFIITNKHLFRRNNGTLVVQSLHGVFKVKDTTTLQQHLVDGRDMIIIRMPKDFPPFPQKLKFREPQREERICLVTTNFQTKSMSSMVSDTSCTFPSGDGIFWKHWIQTKDGQCGSPLVSTRDGFIVGIHSASNFTNTNNYFTSVPKNFMELLTNQEAQQWVSGWRLNADSVLWGGHKVFMVKPEEPFQPVKEATQL

Variants of: B1
Test: raw area under fraction-flipped curve 0-4 h after induction (AUC4h, not background-subtracted), DNA-recorder readout of cleavage of the substrate (dimensionless); higher = more cleavage of the substrate by the protease variant
Conditions: temperature: 34 °C; time window: 0-4 h after rhamnose induction
Method: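 In vivo DNA recorder in E. coli TOP10(DE3) ΔrhaA at 34 °C. Each TEVp single-site mutant (parent TEVp 0) is paired with a single-site variant of the 7-mer TEVs (canonical ENLYFQ|S). The substrate sits between flexible linkers in a Bxb1-sfGFP-TEVs-SsrA fusion, so cleavage stabilises Bxb1 and speeds flipping of a recombination array, read by NGS. The value is the raw area under the fraction-flipped curve over 0-4 h after rhamnose induction (AUC4h), with ≥20 reads per time point. It is not background-subtracted; inactive controls average about 0.047.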
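Note: Bxb1 expression induced with 0.2% (w/v) L-rhamnose at OD600 near 0.5, cultures sampled hourly, flipped fraction per protease–substrate barcode pair counted by paired-end Illumina sequencing.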

| Variant | area with substrate CNLYFQS | area with substrate DNLYFQS | area with substrate FNLYFQS | area with substrate GNLYFQS | area with substrate HNLYFQS | area with substrate PNLYFQS | area with substrate VNLYFQS | area with substrate WNLYFQS | area with substrate YNLYFQS | area with substrate INLYFQS | area with substrate MNLYFQS | area with substrate SNLYFQS | area with substrate TNLYFQS | area with substrate LNLYFQS | area with substrate KNLYFQS | area with substrate NNLYFQS | area with substrate QNLYFQS | area with substrate RNLYFQS |
| --- | --- | --- | --- | --- | --- | --- | --- | --- | --- | --- | --- | --- | --- | --- | --- | --- | --- | --- |
| T147F | 0.0647 | 0.0601 | 0.0618 | 0.0531 | 0.0599 | 0.034 | 0.0591 | 0.0567 | 0.0587 | – | – | – | – | – | – | – | – | – |
| R106E | 0.0668 | 0.0856 | – | – | 0.0731 | 0.0632 | – | 0.0342 | 0.0565 | 0.0551 | 0.0732 | 0.0955 | 0.059 | – | – | – | – | – |
| V113S | 0.0513 | 0.0525 | – | – | 0.0528 | 0.0465 | 0.0692 | 0.0411 | – | 0.047 | 0.0615 | 0.0473 | 0.0449 | 0.0449 | – | – | – | – |
| R204V | 0.0698 | 0.104 | 0.055 | 0.0592 | 0.0606 | 0.0704 | 0.0646 | 0.0638 | 0.0681 | – | 0.05 | 0.0632 | 0.0686 | 0.0689 | 0.076 | 0.0547 | 0.0274 | 0.0445 |
| T70L | 0.0711 | 0.075 | 0.0508 | – | 0.0624 | 0.0647 | 0.0596 | 0.0547 | 0.0563 | 0.061 | – | 0.07 | – | 0.0566 | 0.0579 | – | 0.0662 | – |
| S123N | 0.0604 | 0.0764 | – | – | 0.0639 | – | – | 0.0731 | 0.0722 | – | 0.0705 | 0.0611 | 0.091 | – | 0.0749 | – | 0.0796 | 0.0695 |
| F218N | 0.0439 | 0.047 | 0.0578 | 0.0489 | 0.0467 | 0.0663 | 0.0593 | 0.0685 | 0.0819 | – | – | – | 0.0728 | 0.0587 | 0.0663 | – | – | – |
| K90V | 0.0829 | 0.0616 | – | – | 0.0613 | 0.0625 | – | 0.0736 | 0.0727 | – | 0.0641 | – | 0.0604 | – | – | – | – | – |
| K90G | 0.0716 | 0.086 | – | – | 0.0391 | 0.0557 | – | – | – | 0.088 | 0.0615 | 0.0469 | – | – | – | – | – | – |
| Q59K | 0.0729 | 0.0634 | 0.0667 | 0.0681 | 0.064 | 0.0709 | – | 0.0669 | 0.0628 | – | – | – | 0.0652 | – | – | 0.05 | – | 0.047 |
| T132C | 0.0697 | 0.079 | – | 0.053 | 0.0564 | 0.064 | – | 0.0576 | – | 0.0672 | – | 0.0549 | 0.0656 | 0.0699 | 0.0759 | – | – | – |
| D11F | 0.0595 | 0.0734 | 0.0855 | – | 0.0652 | 0.0642 | 0.0633 | 0.0627 | 0.0554 | 0.0876 | – | 0.0632 | 0.0739 | 0.0415 | 0.0688 | – | – | – |
| G54A | 0.0628 | 0.0656 | 0.0557 | – | 0.0599 | 0.0787 | 0.0501 | 0.0613 | 0.0615 | – | – | 0.067 | 0.0621 | 0.0599 | 0.0604 | 0.0651 | – | – |
| G54M | 0.064 | 0.0591 | 0.0626 | 0.08 | 0.052 | 0.0559 | – | 0.0477 | 0.0631 | – | 0.0506 | 0.0584 | 0.0536 | 0.0687 | 0.046 | 0.0651 | – | 0.0464 |
| V58R | 0.0433 | 0.0367 | 0.049 | 0.039 | 0.0504 | 0.0436 | – | 0.058 | – | – | – | – | – | – | – | 0.0549 | – | – |
| Y179A | 0.0467 | 0.0604 | – | – | 0.0427 | – | – | 0.0558 | – | – | 0.0596 | – | – | – | – | – | – | – |
| K98P | 0.0582 | 0.0839 | 0.0695 | – | 0.0579 | 0.0642 | 0.0744 | 0.0649 | 0.055 | 0.0622 | 0.0663 | 0.0662 | 0.0513 | 0.0616 | 0.0785 | 0.0512 | – | 0.0831 |
| K98S | 0.0606 | 0.061 | 0.0692 | 0.057 | 0.0555 | – | – | 0.0616 | 0.0636 | 0.0666 | 0.069 | – | 0.0676 | – | 0.0803 | 0.0703 | – | – |
| N52Q | 0.0359 | 0.0606 | 0.0543 | 0.0538 | 0.0647 | 0.053 | 0.0686 | 0.0587 | – | 0.0326 | 0.0611 | 0.0642 | 0.0671 | 0.0565 | 0.0606 | – | – | 0.0662 |
| L73E | 0.0389 | 0.0456 | 0.0554 | – | 0.0488 | 0.0504 | 0.052 | 0.062 | 0.0632 | 0.0669 | 0.0497 | 0.0501 | 0.0562 | – | 0.0583 | 0.0447 | 0.0589 | – |
| H29T | 0.0769 | 0.0843 | – | 0.0678 | – | – | 0.0644 | 0.057 | – | 0.0653 | 0.0706 | 0.0768 | – | 0.0797 | – | 0.0614 | 0.0632 | – |
| H29I | 0.0797 | 0.0321 | 0.0697 | 0.0644 | 0.0732 | 0.0656 | – | 0.0513 | – | – | 0.0698 | – | 0.0726 | 0.0644 | 0.0518 | – | – | – |
| S4Y | 0.0699 | 0.0967 | – | 0.0696 | 0.0693 | 0.0951 | – | 0.0708 | 0.0803 | – | 0.089 | – | 0.0709 | 0.0687 | 0.0706 | 0.0709 | – | – |
| Q146D | 0.0762 | 0.0786 | – | – | 0.0555 | – | – | 0.046 | 0.0645 | 0.0856 | 0.059 | 0.0624 | 0.068 | 0.0646 | – | – | 0.0664 | – |
| Q146V | 0.0824 | 0.0735 | 0.068 | – | 0.0723 | – | – | 0.0611 | – | 0.0525 | 0.0634 | – | 0.0679 | 0.0537 | – | – | – | – |
| Q146P | 0.0483 | 0.0957 | – | 0.0754 | 0.0675 | 0.0724 | 0.0702 | 0.073 | – | – | – | – | 0.0625 | 0.0691 | – | – | – | – |
| F117E | 0.0673 | 0.0722 | 0.0595 | 0.0561 | 0.0676 | 0.0767 | – | 0.0662 | 0.0582 | – | – | 0.0671 | 0.0692 | 0.0645 | 0.0586 | – | – | – |
| M219W | 0.075 | 0.0823 | 0.0594 | – | 0.0687 | 0.0707 | – | 0.0575 | 0.0557 | 0.0669 | 0.0652 | 0.0641 | 0.06 | 0.0669 | 0.0703 | 0.0563 | – | 0.0606 |
| W203V | 0.0399 | 0.0424 | 0.0587 | 0.0343 | 0.0572 | – | 0.0667 | 0.0535 | 0.0553 | 0.0495 | 0.0592 | 0.058 | 0.0547 | 0.0712 | – | – | 0.0668 | 0.0467 |
